Assay results as given in PubChem BioAssay AID212 (DTP/NCI, 2004).
Results filed as inconclusive are left out. A number of entries come with more than one value. Only these are listed. There may be further records. The values listed for one entry repeat one measurement across runs, samples, wells, individuals or studies. Records carry a tag for their origin. The letters are not those of the source and start again with each entry. Additions like (4×) stand for listed records that agree.

Tested on: BDF1 mice, colon carcinoma 38 sc, T/C %
Assay: NCI In Vivo Anticancer Drug Screen. Data for tumor model Colon Carcinoma 38 (subcutaneous) in B6D2F1 (BDF1) mice
Conditions: endpoint: median tumor weight (est.), higher = larger tumour
Method: The antitumor activity of compounds was measured in mice bearing transplantable tumors. Survival or tumor size were measured and the results are expressed as the measurement made in the treated group (T) divided by the measurement made in the vehicle treated control group (C). The tumor model used in this assay is Colon Carcinoma 38 (subcutaneous) in B6D2F1 (BDF1) mice

[1] = dose: 25.0 mg/kg/injection, schedule: Q07DX002 (ip), vehicle: saline with Tween-80
[2] = dose: 100.0 mg/kg/injection, schedule: Q07DX002 (ip), vehicle: saline with Tween-80
[3] = dose: 200.0 mg/kg/injection, schedule: Q07DX002 (ip), vehicle: saline with Tween-80
[4] = dose: 400.0 mg/kg/injection, schedule: Q07DX002 (ip), vehicle: saline with Tween-80
[5] = dose: 3.12 mg/kg/injection, schedule: Q07DX002 (ip), vehicle: saline with Tween-80
[6] = dose: 50.0 mg/kg/injection, schedule: Q07DX002 (ip), vehicle: saline with Tween-80
[7] = dose: 25.0 mg/kg/injection, schedule: Q07DX002 (ip), vehicle: Klucel (hydroxypropylcellulose) (HPC)
[8] = dose: 50.0 mg/kg/injection, schedule: Q07DX002 (ip), vehicle: Klucel (hydroxypropylcellulose) (HPC)
[9] = dose: 12.5 mg/kg/injection, schedule: Q07DX002 (ip), vehicle: saline with Tween-80
[10] = dose: 100.0 mg/kg/injection, schedule: Q07DX002 (ip), vehicle: Klucel (hydroxypropylcellulose) (HPC)
[11] = dose: 50.0 mg/kg/injection, schedule: Q07DX002 (ip), vehicle: saline
[12] = dose: 200.0 mg/kg/injection, schedule: Q07DX002 (ip), vehicle: saline

NC1=NCN(C2OC(CO)C(O)C2O)C(=O)N1 (centres undefined)
T/C (dose: 200.0 mg/kg/injection, schedule: Q07DX003 (ip), vehicle: saline): 81 % of control and 118 % of control | T/C (dose: 800.0 mg/kg/injection, schedule: Q07DX003 (ip), vehicle: saline): 30 % of control, 52 % of control, 78 % of control

COc1cc([C@@H]2c3cc4c(cc3[C@@H](OC3OC5CO[C@@H](c6cccs6)OC5C(O)C3O)[C@H]3COC(=O)[C@H]23)OCO4)cc(OC)c1O (some centres undefined)
T/C (dose: 8.0 mg/kg/injection, schedule: Q07DX002 (ip), vehicle: suspension in saline): 70 % of control and 111 % of control | T/C (dose: 16.0 mg/kg/injection, schedule: Q07DX002 (ip), vehicle: suspension in saline): 77 % of control and 115 % of control

Nc1ccc(S(=O)(=O)c2ccc(N)cc2)cc1
T/C [1]: 92 % of control and 121 % of control | T/C [2]: 67 % of control and 118 % of control | T/C (dose: 112.0 mg/kg/injection, schedule: Q07DX002 (ip), vehicle: saline with Tween-80): 60 % of control and 87 % of control | T/C [3]: 85 % of control and 112 % of control | T/C (dose: 225.0 mg/kg/injection, schedule: Q07DX002 (ip), vehicle: saline with Tween-80): 40 % of control and 78 % of control | T/C [4]: 77 % of control and 106 % of control

O=c1[nH]cccc1O
T/C (dose: 500.0 mg/kg/injection, schedule: Q07DX002 (ip), vehicle: saline with Tween-80): 44 % of control and 86 % of control | T/C (dose: 1000.0 mg/kg/injection, schedule: Q07DX002 (ip), vehicle: saline with Tween-80): 78 % of control and 120 % of control

Cc1c2ccc3ccccc3c2c[n+]2ccccc12
T/C (dose: 2.5 mg/kg/injection, schedule: Q07DX002 (ip), vehicle: Klucel (hydroxypropylcellulose) (HPC)): 58 % of control and 98 % of control | T/C (dose: 20.0 mg/kg/injection, schedule: Q07DX002 (ip), vehicle: Klucel (hydroxypropylcellulose) (HPC)): 66 % of control and 94 % of control

Cc1cc(N(CC(C)Br)CC(C)Br)ccc1N=Nc1ccccc1C(=O)O (centres undefined)
T/C [5]: 88 % of control and 118 % of control | T/C [6]: 54 % of control and 95 % of control

C1CCC2OCCOCCOC3CCCCC3OCCOCCOC2C1 (centres undefined)
T/C [7]: 94 % of control and 162 % of control

CN(C)N=Nc1ccccc1
T/C (dose: 6.25 mg/kg/injection, schedule: Q07DX002 (ip), vehicle: Klucel (hydroxypropylcellulose) (HPC)): 57 % of control and 91 % of control | T/C [8]: 23 % of control and 54 % of control

O=c1n(CC2CO2)c(=O)n(CC2CO2)c(=O)n1CC1CO1 (centres undefined)
T/C [1]: 161 % of control [sample A] and 120 % of control [sample B] | T/C (dose: 25.0 mg/kg/injection, schedule: Q07DX002 (ip), vehicle: suspension in saline): 66 % of control [sample A] and 86 % of control, 107 % of control [sample B]

OCC1OC(n2cnc3c(=S)nc[nH]c32)C(O)C1O (centres undefined)
T/C [2]: 55 % of control [sample A] and 70 % of control, 124 % of control (2×) [sample B] | T/C [3]: 30 % of control [sample A] and 79 % of control, 92 % of control [sample B] | T/C [4]: 21 % of control [sample A] and 43 % of control, 82 % of control, 100 % of control [sample B]

OC(C1CO1)C(O)C1CO1 (centres undefined)
T/C (dose: 0.5 mg/kg/injection, schedule: Q07DX003 (ip), vehicle: saline): 69 % of control and 110 % of control

CNc1nc(N(C)C)nc(N(C)C)n1
T/C (dose: 100.0 mg/kg/injection, schedule: Q07DX003 (ip), vehicle: saline): 55 % of control and 106 % of control

O=CN(SSN(C=O)C1CCCCC1)C1CCCCC1
T/C [9]: 75 % of control and 169 % of control | T/C [2]: 77 % of control and 106 % of control | T/C [4]: 60 % of control and 171 % of control

Nc1ncnc2c1ccn2C1OC(CO)C(O)C1O (centres undefined)
T/C (dose: 4.0 mg/kg/injection, schedule: Q07DX003 (ip), vehicle: Klucel (hydroxypropylcellulose) (HPC)): 48 % of control and 94 % of control

CCCN1COC(OCC)C(C)(C)C1 (centres undefined)
T/C [6]: 52 % of control and 85 % of control

O=C(CC(=O)C(F)(F)F)c1csc2ccccc12
T/C [7]: 123 % of control and 156 % of control | T/C [10]: 66 % of control and 104 % of control

Nc1nc(=S)c2[nH]cnc2[nH]1
T/C (dose: 2.0 mg/kg/injection, schedule: Q07DX002 (ip), vehicle: saline): 54 % of control and 92 % of control | T/C (dose: 4.0 mg/kg/injection, schedule: Q07DX003 (ip), vehicle: alkali diluted with saline): 12 % of control, 42 % of control, 55 % of control

CC(Oc1ccccc1-c1ccccc1)C(=O)N(C)C (centres undefined)
T/C [1]: 45 % of control and 104 % of control | T/C [6]: 52 % of control and 85 % of control

C[Si](C)(C)O/C=C1\CCCCC1=O
T/C [9]: 65 % of control and 111 % of control | T/C [1]: 79 % of control and 121 % of control | T/C [3]: 78 % of control and 108 % of control

COc1cc(C(=O)c2cc3c(cc2C)OCO3)cc(OC)c1OC
T/C [10]: 65 % of control and 98 % of control

CC(=Nc1ccccc1)C1=C(O)C(Cc2ccccc2)NC1=O (centres undefined)
T/C [1]: 61 % of control and 112 % of control | T/C [6]: 79 % of control and 110 % of control | T/C [4]: 48 % of control and 84 % of control

COC(=O)Nc1nc2ccc(C3(c4ccc(F)cc4)OCCO3)cc2[nH]1
T/C [11]: 70 % of control and 122 % of control | T/C (dose: 100.0 mg/kg/injection, schedule: Q07DX002 (ip), vehicle: saline): 77 % of control and 192 % of control | T/C [12]: 57 % of control and 101 % of control

c1ccc2sc(SSN3CC4CCC(CC4)C3)nc2c1
T/C [6]: 74 % of control and 117 % of control | T/C [4]: 78 % of control and 121 % of control

CC(=O)Oc1c[nH]c(=O)[nH]c1=O
T/C (dose: 25.0 mg/kg/injection, schedule: Q07DX002 (ip), vehicle: distilled water + Tween-80): 49 % of control and 76 % of control | T/C (dose: 200.0 mg/kg/injection, schedule: Q07DX002 (ip), vehicle: distilled water + Tween-80): 73 % of control and 174 % of control

O=S(=O)(c1ccccc1)N1CN2CCN(C2)C1
T/C [9]: 69 % of control and 109 % of control | T/C [2]: 82 % of control and 123 % of control | T/C [3]: 69 % of control and 115 % of control | T/C [4]: 47 % of control and 124 % of control

CCCC(=O)Nc1ncnc2c1ncn2C1OC2COP(=O)(O)OC2C1OC(=O)CCC (centres undefined)
T/C [11]: 63 % of control, 90 % of control, 96 % of control | T/C [12]: 67 % of control, 157 % of control, 179 % of control | T/C (dose: 400.0 mg/kg/injection, schedule: Q07DX002 (ip), vehicle: saline): 64 % of control and 120 % of control

C=C1C(=O)OCC1(C(=O)OCC)C(=O)OCC
T/C [5]: 50 % of control and 86 % of control | T/C (dose: 6.25 mg/kg/injection, schedule: Q07DX002 (ip), vehicle: saline with Tween-80): 55 % of control and 91 % of control | T/C [1]: 29 % of control and 123 % of control

CN=S(=O)(OCCCCCOS(=O)(=NC)c1ccc(C)cc1)c1ccc(C)cc1 (centres undefined)
T/C [9]: 66 % of control and 232 % of control | T/C [1]: 74 % of control and 102 % of control

CC(=O)NCCCCCCNC(C)=O
T/C [11]: 83 % of control and 113 % of control | T/C (dose: 800.0 mg/kg/injection, schedule: Q07DX002 (ip), vehicle: saline): 77 % of control and 153 % of control

Cn1cnc([N+](=O)[O-])c1S(=O)(=O)NCN1CCOCC1
T/C [7]: 51 % of control and 109 % of control | T/C [8]: 62 % of control and 96 % of control | T/C (dose: 200.0 mg/kg/injection, schedule: Q07DX002 (ip), vehicle: Klucel (hydroxypropylcellulose) (HPC)): 49 % of control and 78 % of control

COc1cc(O)c2c(O)c3c(c4c2c1[C@]1(C4)C(C)=CCCC1(C)C)[C@H](O)[C@@]1(O)CC(=O)C(C(N)=O)=C(O)[C@@]1(O)C3=O
T/C [9]: 49 % of control and 105 % of control
